The values below come from the supplement of paper PMC5655136.

Read counts after selection give these values, which scatter widely.
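Note: shRNA barcodes quantified by deep sequencing of PCR amplicons from cellular DNA, counts expressed as percent of each subpool, ratio averaged over two biological duplicates.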

The subject of the first data set is NB7. Description: fold depletion of shRNA, plasmid library share / infected cells without Dox share (9 days) (ratio); higher = more depleted after infection (more toxic, leaky expression from a Tet-inducible vector; NB7 is a neuroblastoma line without caspase-8). To be noted: shRNA pool: CD95L ORF + CD95L 3'UTR + Venus libraries.
For TGAGGAAAGTGGCCCATTTAA, the “fold depletion of shRNA” value was 3.98.
Still for that read-out and setting: under TGCATTTGGTCAAGATTTTGA stands 2.02; under CCTCTCAAGGTGGGCCTTGCT, 1.86; under CACCCCCATCGGCGACGGCCC, 0.842.
On the same count and under the same terms, then CCCTGGGCCCCTCCAGGCACA, with 3.57.
AATTACCCATATCCCCAGATC: the “fold depletion of shRNA” value is 1.81.
With AGAACACCCCCATCGGCGACG, the “fold depletion of shRNA” value worked out at 1.83.
On the same count and under the same terms, under GCTCTTCCACCTACAGAAGGA stands 2.66; under CAGAAGGAGCTGGCAGAACTC, 0.14.
The same measure, in the same setting: under GTTCAATCTTACCAGTGCTGA stands 3.71.
With GCCCCGTGCTGCTGCCCGACA, the “fold depletion of shRNA” value came out at 0.748.
On the same count and under the same terms, under GCATGGACGAGCTGTACAAGT stands 0.608; under TTCCAGTGCAATTGTAGGGGT, 1.61; under CTGAAGGGCATCGACTTCAAG, 0.918.
In the case of GTCCAACCTCTGTGCCCAGAA, the “fold depletion of shRNA” value stood at 3.2.
The same measure, in the same setting: under CTCTGTGCCCAGAAGGCCTGG stands 1.03; under CAGCAGAACACCCCCATCGGC, 0.777; under CCAAGTGGACCTTGAGACCAC, 1.35.
AAGCTAAAGAGGCTGAAAGAG: the “fold depletion of shRNA” value is 2.31.
In the case of GCCTGGGGATGTTTCAGCTCT, the “fold depletion of shRNA” value was found to be 6.55.
On the same count and under the same terms, under TGTTACAGGCACCGAGAATGT stands 1.94; under CCCCTGAAGAAGAGAGGGAAC, 2.68; under CCCACCCTCGTGACCACCCTG, 1.16.
The same measure, in the same setting: under ACCAAGTGGACCTTGAGACCA stands 0.956.
Same read-out and setting: then AGCTGAGGAAAGTGGCCCATT, with 0.867.
In the case of GTATTCAGTGAGGGTCTTCTT, the “fold depletion of shRNA” value worked out at 2.98.
For the sequence CGGGGTCAATCTTGCAACAAC, the “fold depletion of shRNA” value was 2.5.
Still for that read-out and setting: then ACATGAAGCAGCACGACTTCT, with 5.97; and TGTAGATATTGTGAAGTACAT, with 0.875; and CTGGACGGCGACGTAAACGGC, with 0.846.
For AGACAAATGGAGGAATATGAC, the “fold depletion of shRNA” value was 1.73.
Still for that read-out and setting: under TTTCCATTATGATTCTTTGTT stands 0.655; under AATGTAGATATTGTGAAGTAC, 0.728.
On to TTCAAGGAGGACGGCAACATC, for which the “fold depletion of shRNA” value was found to be 2.84.
Still for that read-out and setting: under AATGCTTCCTGACAATCAACT stands 0.672; under GACGGCAACATCCTGGGGCAC, 0.732; under TCACCTAATGTTTATGAGCCA, 15.2.
On the same count and under the same terms, under TGCAGCAGCCCTTCAATTACC stands 3.27.
In the case of ACTTCTTCAAGTCCGCCATGC, the “fold depletion of shRNA” value stood at 1.25.
As to CACTCTCGGCATGGACGAGCT, the “fold depletion of shRNA” value was found to be 1.8.
The same measure, in the same setting: then TTCTTCAAGTCCGCCATGCCC, with 5.85; and TCAACTCACCTAATGTTTATG, with 1.74.
On the same count and under the same terms, under GAGGCCAATGCCCCACTGGCA stands 1.87; under CCCAGATCTACTGGGTGGACA, 1.61.
For ATGATGAGCTACTGCACTACT, the “fold depletion of shRNA” value came to 1.04.
The same measure, in the same setting: then CAATCTTACCAGTGCTGATCA, with 3.95; and AGCACGACTTCTTCAAGTCCG, with 1.55.
On to AATGAAAACATGTAATAAAAA, for which the “fold depletion of shRNA” value is 0.501.
Take AGCAAGGGCGAGGAGCTGTTC: the “fold depletion of shRNA” value is 1.27.
For the sequence GAAAATATGGGTTGCATTTGG, the “fold depletion of shRNA” value turned out to be 1.07.
Still for that read-out and setting: under CCCGCTACCCCGACCACATGA stands 1.06.
Still for that read-out and setting: then GTAAACGGCCACAAGTTCAGC, with 2.83.
Still for that read-out and setting: under CGACTTCTTCAAGTCCGCCAT stands 2.37; under TCCACCCCCTGAAAAAAAGGA, 2.
As to GGGAGAAGCATGAAAAAGCAG, the “fold depletion of shRNA” value is 0.609.
In the case of AACTCTAATAGTGCTTAAAAA, the “fold depletion of shRNA” value worked out at 0.445.
Still for that read-out and setting: then TACCCATATCCCCAGATCTAC, with 2.46; and TTCAAGATCCGCCACAACATC, with 1.76.
As for TTGTATTCAGTGAGGGTCTTC, the “fold depletion of shRNA” value came to 2.61.
The same measure, in the same setting: under CCAGGAGCGCACCATCTTCTT stands 1.97; under GAAAAAGCAGCTACCAGGTGT, 1.53; under AACAGGCAAGTCCAACTCAAG, 0.529.
Same read-out and setting: under ATAATAAGCTAAAGAGGCTGA stands 1.02; under AAGACTAGAGGCTTGCATAAT, 1.08.
Consider CAAAATGTCTGTAGCTCCTCA, for which the “fold depletion of shRNA” value was found to be 1.41.

The same data set, now with this note: shRNA pool: CD95 ORF + CD95 3'UTR + Venus libraries.
As for CCTCTAAATTACCTCTGATAA, the “fold depletion of shRNA” value was found to be 1.75.
TTCACATAGAAAACATTAAAT: the “fold depletion of shRNA” value is 0.938.
Same read-out and setting: under CACCCCCATCGGCGACGGCCC stands 1.09; under GGCATCTAACATATGATTCTG, 1.12.
